# In PubChem BioAssay AID624417 (National Center for Advancing Translational Sciences (NCATS), 2012):
# About 6,400 (1.6%) of roughly 410,000 compounds were called active. Inconclusive results, whose numbers are uncertain, are shown with a selection of clear calls. The call rests on the fitted dose curve; in most records, active means well fitted inhibition curve with a large enough effect; inconclusive means small, poorly fitted or top-dose-only effect; inactive means no such curve, though single readings can be large or run the other way. No potency is given beside an inconclusive call; the fits are too rough. Peptide text beside a SMILES is read from it. * marks the point of attachment. Boc = CC(C)(C)OC(=O)*; Bn = c1ccc(C*)cc1
# Biological target: Glucagon-like peptide 1 receptor (Homo sapiens) (UniProt P43220)
# Sequence of UniProt P43220 (P43220 whole entry, looked up): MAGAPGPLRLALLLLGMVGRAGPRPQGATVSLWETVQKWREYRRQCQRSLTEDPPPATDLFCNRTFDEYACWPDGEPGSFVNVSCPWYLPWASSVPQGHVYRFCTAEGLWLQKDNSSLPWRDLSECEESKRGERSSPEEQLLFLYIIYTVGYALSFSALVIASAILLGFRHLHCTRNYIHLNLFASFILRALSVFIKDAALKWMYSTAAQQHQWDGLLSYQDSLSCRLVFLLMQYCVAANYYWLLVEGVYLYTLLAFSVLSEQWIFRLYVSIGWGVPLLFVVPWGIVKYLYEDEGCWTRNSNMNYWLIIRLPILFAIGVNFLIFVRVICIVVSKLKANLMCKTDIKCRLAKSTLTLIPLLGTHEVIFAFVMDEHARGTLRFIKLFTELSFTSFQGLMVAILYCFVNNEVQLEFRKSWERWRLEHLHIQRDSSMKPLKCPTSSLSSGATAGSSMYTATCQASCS
# Assay: qHTS of GLP-1 Receptor Inverse Agonists (Inhibition Mode); further: nearly all actives have a fitted effect of over 55% in size
# Settings: HEK293 GLP-1R CRE-luciferase, luminescence, 24 h, GLP-1R form is constitutively active; activity change, negative = inhibition: at 38.3 µM (top of the series) unless noted
# Summary of the method: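 Assay principle: reduced luminescence from a cAMP-responsive reporter in HEK293 cells co-expressing a constitutively active GLP-1R. Conditions: 24 hr compound incubation, 37 deg C, 5% CO2.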
# On the % scale 0 is the no-effect control and ±100 the full control effect; potency means the concentration at half of the fitted maximal effect; tags describe the fitted curve by direction and shape.
SMILES,Potency,"activity change, negative = inhibition"
CCC(Oc1ccccc1)C(=O)Nc1nnc(S(=O)(=O)N(CC)CC)s1 (centres undefined),inactive,
N#Cc1ccc(C2=CC(=O)C[C@H](c3ccc(F)cc3)C2)cc1,"inconclusive [inhibitor, single point]",
CCc1ccc(NC(=O)c2cnn(-c3ccccc3)c2-n2cccc2)cc1,"inconclusive [inhibitor, partial curve, poor fit]",
Cc1ccc(OCC(=O)N2N=C(c3ccncc3)CC2(O)C(F)(F)F)cc1C (centres undefined),"inconclusive [inhibitor, partial curve, poor fit]",
O=C(CCCc1c[nH]c2ccccc12)NCc1ccccc1C(F)(F)F,"inconclusive [inhibitor, single point]",
CCOC(=O)C1CCN(c2ncnc3c2nc2n3CCCCC2)CC1,inactive,
CN(C)c1ccc(C2CC(c3cccc(NS(C)(=O)=O)c3)=NN2C(=O)c2ccccc2)cc1 (centres undefined),"inconclusive [inhibitor, partial curve, poor fit]",
CC(=O)Nc1nc2cc3c(cc2s1)OCCO3,"inconclusive [inhibitor, single point]",
Cc1ccc(Cc2nc3ccccc3[nH]2)cc1,,inconclusive: -40.5% [inhibitor]
CCC1CCCCN1CCCNC(=O)Cn1ncn2nc(-c3ccc(OC)cc3)cc2c1=O (centres undefined),"inconclusive [inhibitor, partial curve, poor fit]",
CCn1c(C)nc2cc(C(=O)N/N=C/c3cccc(O)c3O)ccc21,"inconclusive [inhibitor, single point]",
COc1ccc(-c2sc3ccc(N4CCOCC4)cc3c2-c2ccc(OC)c(F)c2)cc1,"inconclusive [inhibitor, single point]",
CC1CCN(C(=O)COC(=O)CCCN2C(=O)c3cccc4cccc(c34)C2=O)CC1,inactive,
COc1ccccc1CCNC(=O)C1CC(=O)N(c2ccccc2F)C1 (centres undefined),inactive,
O=C(NCCN1CCN(c2cccc(Cl)c2)CC1)Nc1ccccc1,"inconclusive [inhibitor, partial curve, poor fit]",
CC(NS(=O)(=O)c1ccc(Br)cc1)C(c1cccs1)N1CCOCC1 (centres undefined),"inconclusive [inhibitor, single point]",
CC[C@]12c3[nH]c4ccc(OC)cc4c3CCN1C(=O)C(CC(=O)NC/C=C(\C)CCC=C(C)C)C[C@@H]2C(=O)N1CCN(C(=O)C2CC2)CC1 (some centres undefined),"inconclusive [inhibitor, single point]",
Cc1cccc(OC(C)C(=O)Nc2cc(S(=O)(=O)N3CCCCC3)ccc2C)c1 (centres undefined),"inconclusive [inhibitor, single point]",
O=C(Nc1cccc(S(=O)(=O)Nc2ccccc2F)c1)c1ccc2ccccc2n1,"inconclusive [inhibitor, single point]",
Cc1ccc(SCc2c(C(=O)N/N=C/c3ccc(C)o3)nnn2-c2nonc2N)cc1,"inconclusive [inhibitor, partial curve, poor fit]",

SMILES,Potency,"activity change, negative = inhibition"
CCCCNC1C(CC)C(CCC)C(C#N)(C#N)C1(C#N)C#N (centres undefined),"inconclusive [inhibitor, single point]",
O=C(N/N=C/c1cc([N+](=O)[O-])ccc1O)NC12CC3CC(CC(C3)C1)C2,"inconclusive [inhibitor, partial curve, poor fit]",
O=C(O)c1cc(O)c2c(c1)[C@H]([C@H]1c3cc(C(=O)O)cc(O)c3C(=O)c3c(O[C@@H]4O[C@H](CO)[C@@H](O)[C@H](O)[C@H]4O)cccc31)c1cccc(OC3O[C@H](CO)[C@@H](O)[C@H](O)[C@H]3O)c1C2=O (some centres undefined),inactive,
O=C(Oc1coc(CSc2nnc(NC(=O)C3CC3)s2)cc1=O)c1ccccc1,"inconclusive [inhibitor, single point]",
Cc1cc2c(NC(=O)Nc3ccccc3)cccc2nn1,inactive,
Cc1cc(C)cc(NC(=O)C2(c3ccccc3)CC2(Cl)Cl)c1 (centres undefined),"inconclusive [inhibitor, single point]",
CC(C)CC(NC(=O)C(Cc1ccc(OCc2ccccc2)cc1)NC(=O)OC(C)(C)C)C(N)=O (centres undefined) (Boc-Tyr(Bn)-Leu-NH2; configuration not given here),"inconclusive [inhibitor, single point]",
COCC(=O)N1CCCC(C(=O)c2ccc(Oc3ccccc3)cc2)C1 (centres undefined),"inconclusive [inhibitor, partial curve, poor fit]",
CS(=O)(=O)N(Cc1ccccc1Cl)c1ccc(C(=O)NCc2cccnc2)cc1,"inconclusive [inhibitor, single point]",
CCCSc1nnc(-c2c[nH]c3ccccc23)n1CC,"inconclusive [inhibitor, single point]",
COc1ccc(C2NN=C(c3c[nH]c4ccccc34)C2O)cc1 (centres undefined),"inconclusive [inhibitor, single point]",
CN(CC(=O)Nc1ccc(Cl)c(C(F)(F)F)c1)C(=O)C1CC(=O)N(CCc2ccccc2)C1 (centres undefined),"inconclusive [inhibitor, partial curve, poor fit]",
COc1ccccc1/C=C/C(=O)Oc1cccc2cccnc12,active: 4.47 µM,
Cc1ccc(C(=O)C2=C(O)C(=O)N(Cc3ccco3)C2c2cccc(Cl)c2)o1 (centres undefined),"inconclusive [inhibitor, partial curve, poor fit]",
CCOc1ccccc1N1CCN(C(=O)/C=C/c2cccc([N+](=O)[O-])c2)CC1,"inconclusive [inhibitor, single point]",
Cn1c(=O)[nH]c2cc(-c3noc(-c4ccc(Br)cc4)n3)ccc21,inactive,
C=CCn1c(CSCc2ccccc2)nnc1SCC(=O)NCc1ccccc1,"inconclusive [inhibitor, single point]",
Cc1ccc(-c2nc3c(C)cc(Br)cn3c2Cc2ccsc2)cc1,"inconclusive [inhibitor, partial curve]",
Cc1cc(C)cc(Cn2c(C)c(C(=O)N(C)Cc3ccc(F)cc3)sc2=O)c1,"inconclusive [inhibitor, single point]",
CCN1CCCC(OC(=O)c2cc(-c3ccc(C)cc3)nc3ccccc23)C1 (centres undefined),"inconclusive [inhibitor, partial curve, poor fit]",

SMILES,Potency,"activity change, negative = inhibition"
COc1ccccc1Nc1nc(-c2ccccc2F)nc2ccccc12,"inconclusive [inhibitor, partial curve]",
C=CCOc1c(CNc2ccc(C(=O)O)cc2)cccc1OC,inactive,
N#CC[C@H](c1ccccc1)N1CCN(Cc2ccccc2)CCC1=O,inactive,
N#C/C(=C\c1ccc(N2CCOCC2)cc1)c1ccccc1,"inconclusive [inhibitor, single point]",
COc1ccc(C2c3cc(OC)c(OC)cc3CC(=O)N2c2ccc(C)cc2)cc1 (centres undefined),"inconclusive [inhibitor, single point]",
C#CCNC(=O)C1=C[C@H](c2cn(C(C)=O)c3ccccc23)C[C@H](OCc2ccc(CO)cc2)O1,"inconclusive [inhibitor, single point]",
CN(CC(=O)Nc1ccc(F)cc1)c1ccc(S(=O)(=O)N2CCCCC2)cc1[N+](=O)[O-],"inconclusive [inhibitor, partial curve, poor fit]",
Cc1cccc(Cn2c(=O)n3nc(-c4ccccc4)nc3c3ccccc32)c1,inactive,
CN(C)c1nc(-c2ccccc2)c2cnn(Cc3ccccc3)c2n1,"inconclusive [inhibitor, partial curve, poor fit]",
Cc1cc(N2CCCCC2)nc2ccc(NC(=O)/C=C/c3ccccc3Cl)cc12,"inconclusive [inhibitor, partial curve, poor fit]",
CC(C)c1ccc(-c2c(C#N)c(N)nc(SCC(=O)N3CCCCCC3)c2C#N)cc1,"inconclusive [inhibitor, partial curve, poor fit]",
CSc1ccc(CN2CCC(N3CCC(C(=O)NC4CC4)CC3)CC2)cc1,"inconclusive [inhibitor, single point]",
CN(C(=O)c1ccccc1C(=O)OCC(=O)Nc1ccc(OC(F)F)cc1)c1ccccc1,"inconclusive [inhibitor, partial curve, poor fit]",
Oc1ccc(C[C@H]2CNC(=S)N2C[C@H]2CCCN2C[C@H](Cc2ccccc2)N2C[C@H](Cc3ccccc3)N(CC3CCCCC3)C2=S)cc1,"inconclusive [inhibitor, partial curve, poor fit]",
COc1ccc(S(=O)(=O)Nc2cccc3c2O[C@H](CN(C)Cc2ccc(-c4ccccc4)cc2)[C@@H](C)CN([C@H](C)CO)C3=O)cc1,"inconclusive [inhibitor, partial curve, poor fit]",
COC(=O)c1ccc(Cn2c(=O)cc(C(F)(F)F)c3c(C)nn(C)c32)cc1,inactive,
CC(C)(C)OC(=O)CC[C@@H](C(=O)NCCCCCCCCCCC(=O)N1CCN(C(=O)OC(C)(C)C)CC1)n1cc(CCCCCNC(=O)OC(C)(C)C)nn1,"inconclusive [inhibitor, partial curve, poor fit]",
CCCn1c2ccccc2c2cnn(CC(=O)NCCc3ccccc3)c(=O)c21,inactive,
O=C1[C@H]2[C@@H](c3ccc(Cl)cc3)N3C(=O)N(c4cccc(F)c4)C(=O)[C@@]3(Cc3ccccc3)[C@H]2C(=O)N1C1CCCCC1,"inconclusive [inhibitor, partial curve]",
